Where “and” joins values, the source holds several entries; their conditions need not be identical. Equal values may be shown once. At least one read-out could not be matched to a standard name with certainty.
Test system: BMDCs
Experiment: LDH release (lytic cell death, pyroptosis) from LPS-primed BMDCs
Type: cell-based, mouse
Description: This was tested in cell culture in several different in vitro assays classically used to investigate inflammasome activation. These include measuring inflammasome-dependent lytic cell death (pyroptosis) by detecting release of the cytosolic enzyme lactate dehydrogenase (LDH) using a commercial colorimetric assay and release of proinflammatory cytokines like IL-1β by enzyme-linked immunosorbent assay (ELISA), analyzing cleavage and activation of caspase-1 and IL-1β by immunoblotting and immunofluorescence imaging of ASC speck formation. Lytic cell death was determined via LDH release. Assay results for compounds are illustrated in the Tables below, wherein the concentration of the compounds tested had been 50 μM or as indicated in the table, and the concentration of the known activators has been tested with 5 μM of nigericin, 100 μM of each R837 and CL097. For classification of the activity of a given molecule, release of IL-1β was quantified as % of IL-1% of a respective control activator used for the experiment (highlighted in tables with bold letters). The compounds listes in Table 1 were classified into 4 groups depending on their ability to induce the NLRP3 inflammasome activation, assessed by % IL-1β release as compared to the positive control.
Mouse bone marrow-derived dendritic cells (BMDCs) were isolated from femurs and tibias previously described (Gross, Olaf, 2012, “Measuring the inflammasome”, Methods in molecular biology, Clifton, N.J., 844, pp. 199-222.). In brief, tibias and femurs were carefully removed and put to sterile 70% ethanol for 1 minute. Using a 22-G needle attached to a 20 ml-syringe filled with sterile flushing medium, the bone marrow was pressed through the mesh of a […] cell strainer. The cells were spun down by centrifugation at 400×g, 4° C. for 5 minutes and red blood cells lysed by resuspension and incubation for 5 minutes at room temperature in RBC lysis buffer. 9 ml of flushing medium were added and cells were again spun down by centrifugation at 400×g, 4° C. for 5 minutes. Cells were then resuspended in BMDC medium (RPMI, 10% fetal bovine serum, 1% penicillin-streptomycin100 U/ml, 20 ng/ml recombinant murine GM-CSF), counted and plated at a density of 0.5×10^6 cells ml^−1 in 10 ml medium and incubated at 37° C., 5% CO2 in a humidified incubator. After 2 days, 10 ml of fresh medium were added to the cells and after 4 days, the medium was fully exchanged to 20 ml of fresh medium. The cells were allowed to differentiate for 6 to 8 days before usage.
For canonical inflammasome activation BMDCs after 7-9 days of differentiation were harvested and counted with a Neubauer Chamber (Hecht Assistant) and the concentration was set to 1 Mio cells ml^−1. 100 μl cell suspension per well were seeded in 96-well plates. The cells were primed with 50 ng ml^−1 E. coli K12 ultra-pure LPS for 3 hours and subsequently treated with canonical inflammasome activators or experimental compounds for 3 hours if not indicated differently (incubation time FIG. 4D, 5, 7, 8, 11, 13-18: 3 h, FIG. 12: 4 h). Concentrations of the stimuli were as follows if not indicated differently: 5 μM nigericin, 100 μM imiquimod (also known as R837), 100 μM CL097, 100 μM R848, […] poly(dA:dT), 300 μg ml^−1 MSU. If an inhibitor was used before stimuli treatment, the inhibitor was added after 2.5 hours of priming and it was incubated for 30 minutes before inflammasome activation. Inhibitors were used as follows: 3 μM MCC950, 45 mM KCl, 30 μM ebselen (2-Phenyl-1,2-benzoselenazol-3-one), 5 μM cytochalasin D (see FIGS. 8, 11, 12 and 17).
All inflammasome stimulations were performed in three technical replicates for each condition. […]

[1] = single replicates, compound 50 μM, LPS-primed BMDCs
[2] = 20 μM, individual replicate values
[3] = 40 μM, individual replicate values
[4] = 80 μM, individual replicate values
[5] = section 1.4, single replicates, 18.75 μM
[6] = section 1.4, single replicates, 37.5 μM
[7] = section 1.4, single replicates, 75 μM
[8] = 25 μM, individual replicate values, EN11 series table
[9] = 50 μM, individual replicate values, EN11 series table
[10] = 100 μM, individual replicate values

Row | SMILES | LDH release (% of max.) [1] | also measured
1 | O=C(Nc1ccccc1)Nc1cccc([N+](=O)[O-])c1 [L01.108, 3-(3-nitrophenyl)-1-phenylurea] | 10.269 % of max. and 10.350 % of max. | –
2 | Cc1ccc(NC(=O)Nc2ccccc2)cc1NC(=O)NC1CC1 [L01.028, 3-cyclopropyl-1-{2-methyl-5-[(phenyl-carbamoyl)amino]-phenyl}urea] | 15.129 % of max. and 15.770 % of max. | –
3 | COc1ccc(NC(=O)Nc2ccc3ncccc3c2)cc1 [JB010, 1-(4-methoxyphenyl)-3-(quinolin-6-yl)urea] | – | LDH release (% of max.) [2]: 23.784 % of max. and 23.266 % of max.; LDH release (% of max.) [3]: 32.791 % of max. and 35.906 % of max.; LDH release (% of max.) [4]: 41.749 % of max. and 43.361 % of max.
4 | O=C(Nc1ccccc1Cl)Nc1ccc([N+](=O)[O-])cc1Cl [A.C2, 3-(2-chloro-4-nitrophen-yl)-1-(2-chlorophenyl)-urea] | – | LDH release (% of max.) [5]: 18.465 % of max. and 16.442 % of max.; LDH release (% of max.) [6]: 45.313 % of max. and 45.110 % of max.; LDH release (% of max.) [7]: 73.140 % of max. and 77.102 % of max.
5 | O=C(Nc1ccccc1)Nc1ccc(NC(=O)C2CCOC2)cc1 (stereo not shown) [L01.101, N-{4-[(phenylcarbamo-yl)amino]phenyl}oxo-lane-3-carboxamide] | 19.564 % of max. and 20.661 % of max. | –
6 | CC(C)C(=O)Nc1cccc(NC(=O)Nc2ccccc2)c1 [L01.023, 2-methyl-N-{3-[(phenyl-carbamoyl)amino]phen-yl}propanamide] | 5.764 % of max. and 5.837 % of max. | –
7 | CNC(=O)NCc1cccc(NC(=O)Nc2ccccc2)c1 [L01.132, 3-(3-{[(methylcarbamo-yl)amino]methyl}phen-yl)-1-phenylurea] | 6.201 % of max. and 6.631 % of max. | –
8 | COCc1cc(F)ccc1NC(=O)NC(c1nc(-c2cccnc2)no1)C(C)C (stereo not shown) [L01.054, 1-[4-fluoro-2-(methoxy-methyl)phenyl]-3-{2-methyl-1-[3-(pyridin-3-yl)-1,2,4-oxadiazol-5-yl]propyl}urea] | 8.452 % of max. and 8.848 % of max. | –
9 | CC(C)=CC(=O)Nc1cccc(NC(=O)Nc2ccccc2)c1 [L01.003, 3-methyl-N-{3-[(phen-ylcarbamoyl)amino]-phenyl}but-2-enamide] | 8.927 % of max. and 8.221 % of max. | –
10 | COc1ccc(NC(=O)NCc2nc(Cc3ccccc3)no2)cc1 [L01.125, 3-[(3-benzyl-1,2,4-oxadiazol-5-yl)methyl]-1-(4-methoxyphenyl)-urea] | 6.471 % of max. and 6.431 % of max. | –
11 | O=C(Nc1ccccc1)Nc1cccc(NC(=O)C2CCCC2)c1 [L01.103, N-{3-[(phenylcarbamo-yl)amino]phenyl}cyclo-pentanecarboxamide] | 7.017 % of max. and 10.089 % of max. | –
12 | Cc1ccc(NC(=O)NCc2nc(Cc3ccccc3)no2)cc1 [L01.088, 3-[(3-benzyl-1,2,4-oxadiazol-5-yl)methyl]-1-(4-methylphenyl)urea] | 4.709 % of max. and 5.350 % of max. | –
13 | Cc1cccc(NC(=O)Nc2ccccc2)c1 [L01.077, 3-(3-methylphenyl)-1-phenylurea] | 6.127 % of max. and 6.102 % of max. | –
14 | O=C1CN(c2ccccc2)C(=O)N1Cc1nc(-c2cccs2)no1 [L01.089, 1-phenyl-3-{[3-(thio-phen-2-yl)-1,2,4-oxadiazol-5-yl]meth-yl}imidazolidine-2,4-dione] | 6.519 % of max. and 7.642 % of max. | –
15 | O=C(Nc1ccccc1)Nc1cccc(Br)c1 [L01.020, 3-(3-bromophenyl)-1-phenylurea] | 11.294 % of max. and 9.407 % of max. | –
16 | O=C(NCc1ccccc1)Nc1ccc2ncccc2c1 [EN11-16, 1-benzyl-3-(quinolin-6-yl)urea] | – | LDH release (% of max.) [8]: 8.212 % of max. and 7.138 % of max.; LDH release (% of max.) [9]: 8.767 % of max. and 7.683 % of max.; LDH release (% of max.) [10]: 14.125 % of max. and 9.163 % of max.

Row | SMILES | LDH release (% of max.) [1] | also measured
17 | COc1ccc(NC(=O)Nc2ccc(-c3noc(CC4CCCN(Cc5cccc(F)c5C)C4)n3)cc2)cc1 (stereo not shown) [PM07, 1-[4-(5-((1-(3-fluoro-2-methylbenzyl)piperidin-3-yl)methyl)-1,2,4-oxadiazol-3-yl)phenyl]-3-[(4-methoxy)phenyl] urea] | – | LDH release (% of max.) [5]: 51.715 % of max. and 50.881 % of max.; LDH release (% of max.) [6]: 69.716 % of max. and 70.399 % of max.; LDH release (% of max.) [7]: 85.806 % of max. and 86.028 % of max.
18 | O=C(NCc1nc(-c2cccnc2)no1)Nc1ccc([N+](=O)[O-])cc1Cl [L01.042, 1-(2-chloro-4-nitrophen-yl)-3-{[3-(pyridin-3-yl)-1,2,4-oxadiazol-5-yl]-methyl}urea] | 8.482 % of max. and 6.354 % of max. | –
19 | O=C(NCc1nc(-c2cccnc2)no1)Nc1cccc2cnccc12 [L01.062, 1-(isoquinolin-5-yl)-3-{[3-(pyridin-3-yl)-1,2,4-oxadiazol-5-yl]-methyl}urea] | 13.307 % of max. and 13.003 % of max. | –
20 | CS(=O)(=O)c1cc(NC(=O)Nc2ccccc2)ccc1Cl [L01.035, 3-(4-chloro-3-methane-sulfonylphenyl)-1-phenylurea] | 8.303 % of max. and 7.473 % of max. | –
21 | O=C(NCc1nc(-c2cccs2)no1)Nc1ccccc1 [L01.087, 1-phenyl-3-{[3-(thio-phen-2-yl)-1,2,4-oxadiazol-5-yl]meth-yl}urea] | 7.261 % of max. and 6.936 % of max. | –
22 | CCOc1ccc(NC(=O)NCc2nc(-c3cccc(OC)c3)no2)cc1OCC [L01.013, 1-(3,4-diethoxyphenyl)-3-{[3-(3-methoxyphen-yl)-1,2,4-oxadiazol-5-yl]methyl}urea] | 7.323 % of max. and 6.537 % of max. | –
23 | CC(C)c1ccc(NC(=O)Nc2ccccc2)cc1 [L01.047, 1-phenyl-3-[4-(propan-2-yl)phenyl]urea] | 12.727 % of max. and 11.451 % of max. | –
24 | COc1ccccc1NC(=O)NCc1nc(-c2cccnc2)no1 [L01.043, 1-(2-methoxyphenyl)-3-{[3-(pyridin-3-yl)-1,2,4-oxadiazol-5-yl]methyl}-urea] | 7.620 % of max. and 8.535 % of max. | –
25 | CC(C)Oc1ccccc1NC(=O)NCc1nc(C2CC2)no1 [L01.083, 3-[(3-cyclopropyl-1,2,4-oxadiazol-5-yl)-methyl]-1-[2-(propan-2-yloxy)phenyl]urea] | 6.504 % of max. and 5.680 % of max. | –
26 | Cc1cc(NC(=O)Nc2ccccc2)ccc1N1CCCC1 [L01.025, 3-[3-methyl-4-(pyrrol-idin-1-yl)phenyl]-1-phenylurea] | 12.654 % of max. and 15.391 % of max. | –
27 | N#Cc1ccc(NC(=O)Nc2ccccc2)cc1 [L01.038, 1-(4-cyanophenyl)-3-phenylurea] | 11.939 % of max. and 11.078 % of max. | –
28 | O=C(Nc1ccccc1)Nc1ccc(NC2CCOCC2)cc1 [L01.065, 1-{4-[(oxan-4-l)amino]-phenyl}-3-phenylurea] | 9.014 % of max. and 9.788 % of max. | –
29 | O=C(NCCc1ccccc1)Nc1ccc2ncccc2c1 [EN11-07, 1-(2-phenylethyl)-3-(quinolin-6-yl)urea] | – | LDH release (% of max.) [8]: 14.369 % of max. and 13.866 % of max.; LDH release (% of max.) [9]: 15.441 % of max. and 13.545 % of max.; LDH release (% of max.) [10]: 14.721 % of max. and 14.340 % of max.
30 | O=C(Nc1ccccc1)Nc1ccc2ncccc2n1 [JB002, 1-(1,5-naphthyridin-2-yl)-3-phenylurea] | – | LDH release (% of max.) [2]: 6.991 % of max. and 7.485 % of max.; LDH release (% of max.) [3]: 9.412 % of max. and 9.594 % of max.; LDH release (% of max.) [4]: 16.997 % of max. and 17.117 % of max.
31 | O=C(Nc1ccccc1)Nc1cccc(OC(F)F)c1 [L01.120, 3-[3-(difluoromethoxy)-phenyl]-1-phenylurea] | 25.196 % of max. and 23.234 % of max. | –

From US20240277658A1, “NLRP3 ACTIVATORS FOR USE IN THE TREATMENT OF INFECTIOUS DISEASES OR CANCER BY ACTIVATING NLRP3 INFLAMMASOME” (ALBERT-LUDWIGS-UNIVERSITÄT FREIBURG, priority 2020, published 2024)
